# In all, about 420,000 compounds went through this assay and about 64,000 (15%) were called active. Inconclusive results, whose numbers are uncertain, are shown with a selection of clear calls. The call rests on the fitted dose curve; in most records, active means well fitted inhibition curve with a large enough effect; inconclusive means small, poorly fitted or top-dose-only effect; inactive means flat fitted curve, though single readings scatter. No potency is given beside an inconclusive call; the fits are too rough.
# Test: qHTS for Inhibitors of human tyrosyl-DNA phosphodiesterase 1 (TDP1): qHTS in cells in absence of CPT; further: nearly all actives have a fitted effect of over 55% in size
# Conditions: DT40 Tdp1-/- hTDP1 cells, no CPT, ATP luminescence, 48 h; series mostly up to 46.2 µM
# Outline: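 Compound effects on proliferation are scored in DT40 Tdp1-/-;hTDP1 cells in the absence of CPT. ATP levels (CellTiter-Glo luminescence) are recorded after a ≥48 hr, 37 °C incubation.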
# Potency means the concentration at half of the fitted maximal effect; tags describe the fitted curve by direction and shape.
row,SMILES,Potency
1,CCc1ccc(NC(=O)COC(=O)/C=C/c2ccco2)cc1,"inconclusive [inhibitor, single point]"
2,CC(C)C(c1nnnn1C1CCCC1)N1CCc2ccccc21 (centres undefined),"inconclusive [inhibitor, single point]"
3,COCC(=O)N1C[C@H]2CON(C)[C@H]2C[C@H]1c1cccc(-c2ccccc2OC)c1,inactive
4,COc1ccc(N(Cc2cc3cc(OC)ccc3[nH]c2=O)C(=O)c2cccc(Cl)c2)cc1,"inconclusive [inhibitor, partial curve]"
5,Cc1ccc(C)c(C(O)c2ncc(-c3ccc(F)cc3)[nH]2)c1 (centres undefined),active: 14.6 µM
6,COc1ccc(S(=O)(=O)N2CCOCC2)c2ccccc12,inactive
7,COc1ccccc1N(CC(O)Cn1c(C)nc2ccccc21)S(=O)(=O)c1ccccc1 (centres undefined),active: 29.1 µM
8,CC(C)COC(=S)Nc1ccccc1,"inconclusive [inhibitor, single point]"
9,Cc1nn(-c2ccccc2)c(Oc2ccccc2)c1C=O,active: 13 µM
10,CCCN(CC1CC1)C(=O)Nc1ccccc1C,inactive
11,Cc1cc(C)c2nc(NC(=O)c3ccco3)sc2c1,"inconclusive [inhibitor, single point]"
12,COc1cccc(CNc2nc3cc(-c4ccc(OC)c(OC)c4)sc3c(=O)n2C)c1,inactive
13,CC(C)(C)OC(=O)[C@H](Cc1ccccc1)NC(=O)c1[nH]cnc1C(=O)Nc1ccc(Cl)cc1,"inconclusive [inhibitor, single point]"
14,N#CC1=C2SCN(c3ccccc3)CN2C(=O)CC1c1ccccc1Cl (centres undefined),"inconclusive [inhibitor, partial curve]"
15,FC(F)(F)c1ccncc1-c1nnnn1-c1ccc(Cl)cc1,"inconclusive [inhibitor, single point]"
16,CC(=O)NC1C(=O)N=C(SCC(=O)NCc2ccccc2)NC1=O (centres undefined),inactive
17,COc1cc(CCCN2C(=S)NC[C@@H]2CC2CCCCC2)cc(OC)c1OC,"inconclusive [inhibitor, single point]"
18,COc1ccccc1CNC(=O)c1cc(-c2cc(F)ccc2OC)n[nH]1,"inconclusive [inhibitor, partial curve]"
19,CC(C)C(NC(=O)c1ccc(F)cc1)C(=O)Nc1cccnc1 (centres undefined),inactive
20,CCN(C(=O)Cn1c(=O)n(Cc2ccccc2)c(=O)c2ccccc21)c1cccc(C)c1,"inconclusive [inhibitor, single point]"
21,CCOC(=O)c1cccc(NC(=O)c2c(N)n(C)c(=O)[nH]c2=O)c1,inactive
22,O=[N+]([O-])c1cc(Br)cc(/C=N/n2cnnc2)c1O,"inconclusive [inhibitor, partial curve]"
23,CCc1ccc(C2c3c(-c4cc(C)ccc4O)n[nH]c3C(=O)N2CCO)cc1 (centres undefined),"inconclusive [inhibitor, single point]"

row,SMILES,Potency
1,COc1c(S(=O)(=O)N2CCN(c3ccc(F)cc3)CC2)ccc(Cl)c1Cl,"inconclusive [inhibitor, single point]"
2,O=C(Nc1ccccc1C(=O)Nc1ccccn1)c1cccc([N+](=O)[O-])c1,"inconclusive [inhibitor, single point]"
3,CC1(CCc2ccccc2)NC(=O)N(CC(=O)N2CC(=O)Nc3ccccc32)C1=O (centres undefined),inactive
4,CS(=O)(=O)c1ccc2nc(NC(=O)CS(=O)(=O)Cc3ccccc3)sc2c1,"inconclusive [inhibitor, single point]"
5,CC(C)c1ccc([C@@H]2O[C@H](C)CC3=C2C(=O)OC(C)(C)O3)cc1,"inconclusive [inhibitor, single point]"
6,Cn1c(SCC(=O)N2CCOCC2)ncc(C(=O)Nc2ccc(F)cc2)c1=O,"inconclusive [inhibitor, partial curve]"
7,COc1ccc(-n2cc(CNCc3cccnc3)c(-c3cccc(F)c3)n2)cc1,"inconclusive [inhibitor, partial curve]"
8,COc1cccc(CNC(=O)[C@@H]2CCCN2C(=O)[C@@H]2CCCN2C(=O)c2cccc3ccccc23)c1,"inconclusive [inhibitor, single point]"
9,Cc1[nH]c2ccccc2c1C(=O)C(C)Sc1nnc(C2CC2)o1 (centres undefined),"inconclusive [inhibitor, single point]"
10,CC1(c2nnc(-c3ccc(F)cc3)o2)CC(c2ccc(F)cc2)=NO1 (centres undefined),"inconclusive [inhibitor, single point]"
11,Cc1ccccc1-c1nc(-c2ccc(NC(=O)c3cccs3)cc2)no1,"inconclusive [inhibitor, single point]"
12,CC1(C)C(=O)N(c2ccccc2Cl)C(=O)c2ccccc21,"inconclusive [inhibitor, partial curve]"
13,CCOc1ccc(OCC(=O)NCCS(=O)(=O)N2CCN(c3ccccc3)CC2)cc1,"inconclusive [inhibitor, partial curve]"
14,CNc1nc(SC)nc(N(C)C#N)n1,inactive
15,Cc1cc(C)c2c(=O)n3c(nc2c1)C(Cc1ccccc1)NC(=O)c1cc2ccccc2cc1-3 (centres undefined),"inconclusive [inhibitor, single point]"
16,Cn1c(-c2ccccc2)cc(=O)cc1-c1ccccc1,inactive
17,Cc1nc([N+](=O)[O-])c(Br)n1CC(=O)c1ccc(F)cc1,active: 16.4 µM
18,CC1=NN(C(=O)COc2ccccc2C)C(O)(c2ccc(Cl)cc2)C1 (centres undefined),inactive
19,C=CCn1c(SCC(=O)c2ccc(O)c(O)c2)nnc1-c1ccc(C)cc1,"inconclusive [inhibitor, single point]"
20,CCN(c1ccccc1)S(=O)(=O)c1ccc(OC)c(NC(=O)C2CC(=O)N(Cc3ccccc3)C2)c1 (centres undefined),"inconclusive [inhibitor, single point]"
21,Cc1ccc(NC(=O)CC2S/C(=N/c3nccs3)N(C)C2=O)c(C)c1 (centres undefined),inactive
22,COc1ccc(OCC(=O)Nc2cc(C)c(Cl)cc2OC)c([N+](=O)[O-])c1,"inconclusive [inhibitor, single point]"
23,COc1ccccc1C(=O)Nc1ccc(S(=O)(=O)N2CCC(C)CC2)cc1,"inconclusive [inhibitor, single point]"

row,SMILES,Potency
1,CCOC(=O)C1(CCOC)CCN(C(C)CCc2ccc(OC)cc2)CC1 (centres undefined),"inconclusive [inhibitor, single point]"
2,COc1cc(NC(=O)CSc2nnc3c(C)cc4c(C)ccc(C)c4n23)c(C(=O)O)cc1OC,inactive
3,Fc1ccc(-c2csc(N3CCC(c4ccccc4)C3)n2)cc1 (centres undefined),"inconclusive [inhibitor, partial curve, poor fit]"
4,CCOC(=O)C1CCCN(C(=O)C2CCCN(S(=O)(=O)c3ccc4c(c3)oc(=O)n4C)C2)C1 (centres undefined),"inconclusive [inhibitor, single point]"
5,C=CCCC(=O)NC1CC(C)(C)Cc2c1cnn2-c1ccc(OC)cc1 (centres undefined),"inconclusive [inhibitor, partial curve]"
6,COc1cc([N+](=O)[O-])ccc1NC(=O)COC(=O)CCS(=O)(=O)c1ccc(C)cc1,"inconclusive [inhibitor, single point]"
7,COc1ccc(C(=O)Nn2cc3c(c2-c2ccccc2)c(=O)n(C)c(=O)n3C)cc1,inactive
8,CNC(=O)CN(Cc1ccccc1)S(=O)(=O)c1ccc(Cl)cc1,inactive
9,NS(=O)(=O)c1cccc(NC(=O)COC(=O)/C=C/c2ccco2)c1,inactive
10,CCn1c(NC(=O)c2ccccc2)c(-c2cccs2)c(=O)c2ccccc21,"inconclusive [inhibitor, single point]"
11,COc1ccccc1CNC(=O)c1oc2ccc(S(=O)(=O)N3CCOCC3)cc2c1C,"inconclusive [inhibitor, single point]"
12,C=CC[C@H](CC(=O)NCCO)C(=O)N[C@@H](COC(=O)[C@@H](CC=C)Cc1ccc(F)cc1)Cc1ccccc1,"inconclusive [inhibitor, single point]"
13,O=C(NC1=NCCS1)c1cccc(S(=O)(=O)N2CCc3ccccc32)c1,"inconclusive [inhibitor, partial curve]"
14,O=C(OCC(=O)c1ccc(Cl)cc1Cl)c1ccccn1,"inconclusive [inhibitor, single point]"
15,CC(=O)N1CCc2c(sc(NC(=O)Cc3ccccc3)c2C#N)C1,inactive
16,CCOC(=O)CSc1nnc(CNC(=O)c2ccco2)n1-c1ccc(F)cc1,inactive
17,Cc1ccc(CNC(=O)CSc2nc(C)cs2)cc1,inactive
18,Cc1ccc(S(=O)(=O)Nc2ccccc2CNc2ccccn2)cc1,"inconclusive [inhibitor, partial curve]"
19,COc1ccc(C(C)NC(=O)CN(c2cc(OC)ccc2OC)S(=O)(=O)c2ccccc2)cc1 (centres undefined),"inconclusive [inhibitor, single point]"
20,COc1cc(S(=O)(=O)N2CCN(C(=O)C3CC3)CC2)ccc1NC(C)=O,inactive
21,COc1ccc2[nH]c3c(c2c1)CCN1C(=O)C(CC(=O)NCc2ccc(OC)c(OC)c2)C[C@H](C(=O)N2CCCCC2)[C@@]31CCc1ccccc1 (some centres undefined),"inconclusive [inhibitor, single point]"
22,NC(N)=N/N=C/c1cc([N+](=O)[O-])ccc1O,inactive
23,CC1CCN(CCCNC(=O)CN2C(=O)CSc3ccc(S(=O)(=O)N4CCCCC4)cc32)CC1,inactive
